Laboratory results taken from PubChem BioAssay AID1159614 (National Center for Advancing Translational Sciences (NCATS), 2016).
Hit rate of the full screen: of about 45,000 compounds, about 65 (0.1%) were called active. Calls come from the whole dose curve; as a rule, active = well fitted activation curve with a large enough effect; inconclusive = small, poorly fitted or top-dose-only effect; inactive = no such curve, though single readings can be large or run the other way. The list shows a part of the results.

Each compound was assayed against Galactocerebrosidase (Homo sapiens) (UniProt P54803) (assay: A Novel Cell-Based Assay to Identify Small Molecules for B -Galactocerebrosidase). Settings: 145M-Twi-hGALC-G270D cells (Twitcher mouse brain line with human GALC G270D), HMU-beta-Gal fluorescence, 48 h; series mostly up to 57.5 µM; activation: at the top concentration.
Outline: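 Fluorescence readout: HMU-β-gal cleavage by mutant GALC (0.1 mM final, citrate/phosphate pH 5.2 with 1 mg/mL taurocholate), stopped with carbonate/bicarbonate plus Triton X-100. Cells: murine Twitcher 145M-Twi expressing human G270D GALC; qHTS for activators.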
Note: 0% is about no effect; nearly all actives have a fitted effect of over 65% in size.

Chain of UniProt P54803 (P54803 whole entry, looked up): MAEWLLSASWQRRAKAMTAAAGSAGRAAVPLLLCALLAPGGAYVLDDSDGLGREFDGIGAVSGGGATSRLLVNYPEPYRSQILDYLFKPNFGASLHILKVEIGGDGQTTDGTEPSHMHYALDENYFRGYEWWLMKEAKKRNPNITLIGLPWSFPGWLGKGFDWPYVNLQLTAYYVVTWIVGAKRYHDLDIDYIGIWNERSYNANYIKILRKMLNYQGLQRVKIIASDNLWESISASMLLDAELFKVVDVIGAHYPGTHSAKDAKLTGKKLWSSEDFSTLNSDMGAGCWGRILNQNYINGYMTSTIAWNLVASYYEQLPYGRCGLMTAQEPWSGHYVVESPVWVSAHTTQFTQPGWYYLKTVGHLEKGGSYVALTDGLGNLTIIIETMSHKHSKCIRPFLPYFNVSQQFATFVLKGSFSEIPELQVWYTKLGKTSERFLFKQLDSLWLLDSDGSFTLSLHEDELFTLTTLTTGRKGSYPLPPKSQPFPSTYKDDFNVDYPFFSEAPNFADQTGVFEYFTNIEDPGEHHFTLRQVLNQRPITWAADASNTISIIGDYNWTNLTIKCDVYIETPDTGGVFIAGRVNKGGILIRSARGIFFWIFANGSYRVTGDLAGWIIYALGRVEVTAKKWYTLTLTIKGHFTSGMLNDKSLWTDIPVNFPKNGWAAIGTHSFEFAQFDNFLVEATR

| SMILES | activation |
| --- | --- |
| O=C(CN1C(=O)C2CCCCN2c2ccc(C(=O)N3CCCC3)cc21)NCc1ccccc1 (stereo not given) | inactive: -7.88% |
| COC(=O)c1ccccc1NC(=O)CSc1nc2sc3c(c2c(=O)[nH]1)CCCC3 | inactive: -14.1% |
| COCCCNC(=O)Cn1c(=O)n(-c2cccc(C)c2)c(=O)c2c3c(sc21)CN(C(C)=O)CC3 | inactive: 19.1% |
| CCN(C(=O)CSc1nnc(-c2ccc(Cl)cc2)o1)c1ccccc1 | inactive: -11.6% |
| CCc1cccc(C)c1NC(=O)C1CCCN(S(=O)(=O)c2cccc3nsnc23)C1 (stereo not given) | inactive: -7.88% |
| CN(C)c1ccc(CNc2nc(-c3ccco3)nn2S(=O)(=O)c2ccc(Cl)cc2)cc1 | inactive: -17.7% |
| COc1ccc(-c2nc3ccccc3o2)cc1NC(=O)c1ccc(N2CCC(C)CC2)c([N+](=O)[O-])c1 | inactive: -17.4% |
| COc1ccc(CNC(=O)c2cc3c(=O)n(Cc4cccs4)ccc3nc2C)cc1 | inactive: -12.2% |
| Cc1ccc2nc(N3CCN(C(=O)C4COc5ccccc5O4)CC3)sc2c1 (stereo not given) | inactive: -17.7% |
| COc1ccc(/C=N/NC(=O)c2ccncc2)cc1OC | inactive: -17.4% |
| Cc1ccnc(NS(=O)(=O)c2ccc(NC(=O)c3cc(=O)c4ccc(C)c(C)c4o3)cc2)n1 | inactive: -16.2% |
| COC(=O)c1ccc(CSc2nc3c([nH]c4ccccc43)c(=O)n2-c2cccc(OC)c2)o1 | inactive: -15.3% |
| Cc1ccc(C(=O)c2cn(Cc3ccc(F)cc3)c3nc(C)ccc3c2=O)cc1 | inactive: 3.08% |
| CCOC(=O)c1cc(-c2ccc(C)cc2)n(CC(=O)Nc2cccc(C(C)=O)c2)c1C | inactive: -11.8% |
| CN(C)CCNC(=O)Cc1ccc(NC(=O)N2CCCCc3ccccc32)cc1 | inactive: -8.84% |
| Cc1nn(Cc2ccccc2)c(C)c1NC(=O)c1cc(C(C)C)on1 | inactive: 10.6% |
| CC1(C)CC(=O)c2cc(C(=O)Nc3ccc(Br)cc3)c(=O)n(-c3ccc(Cl)cc3)c2C1 | inactive: 1.73% |
| COCCCn1c(=N)c(S(=O)(=O)c2ccccc2)cc2c(=O)n3cccc(C)c3nc21 | inactive: -11.9% |
| COc1ccc(Nc2oc(/C=C/c3ccc(F)cc3)nc2C#N)cc1 | inactive: -2.54% |
| Cc1ccc(C2c3cccn3CCN2S(=O)(=O)c2ccc([N+](=O)[O-])cc2)cc1 (stereo not given) | inactive: -3.09% |

| SMILES | activation |
| --- | --- |
| COc1ccccc1N1CCN(C(=O)CCSCc2ccccc2F)CC1 | inactive: -8.46% |
| Cc1ccccc1OCc1nc2c3cnn(-c4ccccc4Br)c3ncn2n1 | inactive: -6.16% |
| Cc1oc(-c2ccccc2F)nc1Cn1c(SCc2ccccc2F)nc2ccncc21 | inactive: -10.4% |
| CCn1cc2nc(SCc3cc(C)ccc3C)n(Cc3ccc(C)cc3)c(=O)c2n1 | inactive: -23.9% |
| CCN1C(=O)c2ccccc2Sc2ccc(NC(=O)Nc3ccc(Br)c(C)c3)cc21 | inactive: -9.58% |
| COc1ccc(-c2cc(NCc3ccc(C)cc3)n3cnnc3n2)cc1 | inactive: -37.8% |
| COc1cccc(NC(=O)C(=O)NCCc2sc(-c3cccc(C)c3)nc2C)c1 | inactive: -36.9% |
| COc1ccc(Nc2nc(N)nc(CSc3nc4ccccc4s3)n2)cc1 | inactive: -18.5% |
| O=S1(=O)c2ccccc2N(Cc2ccccc2Cl)c2ccccc21 | inactive: -15.5% |
| CCC1CN(C(=O)NCc2cccc(OC)c2)c2ccccc2O1 (stereo not given) | inactive: -6.5% |
| COc1ccc(CCNC(=O)c2cc3c(=O)n(C)c4cc(Cl)ccc4c3s2)cc1OC | inactive: -10.7% |
| COc1ccc(-c2[nH]c(-c3ccccc3)nc2SCC(=O)NC2CCCC2)cc1 | inactive: -22.3% |
| CC(C(=O)O)c1cccc(Oc2ccccc2)c1 (stereo not given) | inactive: -28.7% |
| Cc1ccc(-c2ccc(=O)n(CC(=O)NC(C)c3ccccc3)n2)cc1 (stereo not given) | inactive: -14.1% |
| O=C(CN1C(=O)COc2ccc(S(=O)(=O)Nc3ccccc3)cc21)NCc1ccccc1Cl | inactive: -14.4% |
| CCN(CC)S(=O)(=O)c1ccc(C(=O)NC2CC(=O)N(c3ccc4c(c3)OCCO4)C2)cc1 (stereo not given) | inactive: 1.32% |
| CCOC(=O)c1c(S(=O)(=O)N2CCC(C(=O)Nc3cccc(C#N)c3)CC2)c(C)n(C)c1C | inactive: -9.79% |
| Cc1c(C(=O)OC2CCCCCC2)[nH]c2c1C(=O)CC(c1ccccc1Cl)C2 (stereo not given) | inactive: -19.9% |
| Cc1ccccc1NC(=O)Cn1c(=O)n(CCCCC(=O)NCc2ccccc2Cl)c(=O)c2ccccc21 | inactive: -24.1% |
| COc1ccc(CCNc2nc(SCc3ccccc3Cl)nc3ccccc23)cc1OC | inactive: 0.867% |

| SMILES | activation |
| --- | --- |
| CCOC(=O)c1ccc(N2C(=O)c3[nH]nc(-c4ccccc4)c3C2c2cccs2)cc1 (stereo not given) | inactive: -24.4% |
| COc1ccc(NC(=O)Cn2c(=O)n(CCc3ccccc3)c(=O)c3sc4ccccc4c32)cc1 | inactive: 1.2% |
| Cc1cc(C)nc(-n2nc(C)c3c2NC(=O)CC3c2ccccc2OC(C)C)n1 (stereo not given) | inactive: -17.7% |
| O=C(CSc1nc2c(c(=O)[nH]1)CN(Cc1ccc(F)cc1)CC2)Nc1cccc(C(F)(F)F)c1 | inactive: -5.62% |
| Cc1ccc(C)c(NC(=O)C2CCCN(S(=O)(=O)c3cccc4nsnc34)C2)c1 (stereo not given) | inactive: -7.29% |
| CCCCC(=O)NC1(C(F)(F)F)C(=O)Nc2c1c(=O)[nH]c(=O)n2-c1ccc(F)cc1 (stereo not given) | inactive: -14.1% |
| CCC1CCCCN1C(=O)Cn1c(=O)n(-c2ccccc2C(F)(F)F)c(=O)c2c(C)c(C(=O)N(C)C)sc21 (stereo not given) | inactive: -10.3% |
| COc1cc(Cl)c(NS(=O)(=O)c2ccc3[nH]c(=O)ccc3c2)c(OC)c1 | inactive: -15.5% |
| COc1ccccc1N1CCN(C(c2ccccc2)c2nnc(-c3ccccc3Cl)o2)CC1 (stereo not given) | inactive: -17.6% |
| Cc1ccc(NC(=O)Cn2c(=O)n(Cc3nc(-c4ccccc4)no3)c(=O)c3cc4c(cc32)OCO4)cc1C | inactive: -9% |
| CCOc1ccc(OCC)c(NC(=O)CN(c2ccc(C)cc2)S(=O)(=O)c2c(C)n[nH]c2C)c1 | inactive: -14.2% |
| CCOc1ccc(NC(=O)C(CC)n2nc(-c3ccc(C)c(C)c3)ccc2=O)cc1 (stereo not given) | inactive: -7.61% |
| COc1ccc(C2CC(=O)c3c([nH]c(C(=O)OC4CCCC4)c3C)C2)cc1OC (stereo not given) | inactive: -16% |
| COc1ccc(-c2csc3ncnc(Nc4ccc(OC)c(OC)c4)c23)cc1 | inactive: -14.2% |
| CCOc1ccc(CCNC(=O)c2ccc(Cn3c(=O)c4cccn4c4cccnc43)cc2)cc1 | inactive: 11.6% |
| COc1cccc(C(=O)c2sc(Nc3ccc(C)cc3C)c(S(=O)(=O)c3ccccc3)c2N)c1 | inactive: -14.2% |
| C[C@@H]1CN(CCCn2c3ccccc3c3ccccc32)C[C@H](C)N1 | inactive: -13.1% |
| CC(C)=CCOc1ccc(/C=C/C(=O)c2ccc(OCC=C(C)C)cc2OCC(=O)O)cc1 | inactive: -5.43% |
| CCCNC(=O)c1cc2n(n1)CCCN(Cc1ccc(F)cc1)C2=O | inactive: -4.14% |
| O=C(c1ccc2c(c1)N(Cc1ccccc1F)C(=O)c1ccccc1S2(=O)=O)N1CCCCCC1 | inactive: -5.9% |
